{
  "source": "the supplement of paper PMC7125110",
  "parents": {"B1": {"name": "glmS ribozyme (parent)", "chain": "AUAAAAGCGCCAGAACUACAGAAAUGUAGUUGACGAGGAGGAGGUUUAUCGAAUUUUCGGCGGAUGCCUCCAAA"}},
  "note": "± gives the standard error. Variants at the background level are over-represented here.",
  "data": [
    {"variants_of": "B1", "experiment": "self-cleavage kobs at 10000 uM GlcN6P; higher = faster cleavage; RNA array", "details": "with glucosamine-6-phosphate", "how_it_was_run": "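A hybridised Cy3 probe tracked barcoded ribozyme variants, transcribed in situ by E. coli RNA polymerase on sequenced MiSeq chips, at 37 °C. The variants received 40 μM to 10 mM glucosamine-6-phosphate in HEPES/KCl/Mg(OAc)2 buffer. kobs came from decay fits and kcat and KM from weighted Michaelis–Menten fits.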", "units": {"self-cleavage kobs at 10000 uM GlcN6P": "s⁻¹"}, "values": [
      {"variant": "A14G C61A C70A", "self-cleavage kobs at 10000 uM GlcN6P": "< 1e-05"},
      {"variant": "G29C G37A G43U", "self-cleavage kobs at 10000 uM GlcN6P": "< 1e-05"},
      {"variant": "A15G G32A A39U C50U", "self-cleavage kobs at 10000 uM GlcN6P": "< 1e-05"},
      {"variant": "G38C C61G U69A", "self-cleavage kobs at 10000 uM GlcN6P": "< 1e-05"},
      {"variant": "G13U U30A C58U G59U", "self-cleavage kobs at 10000 uM GlcN6P": "< 1e-05"},
      {"variant": "A14U G38A G40U U47C G66U", "self-cleavage kobs at 10000 uM GlcN6P": "< 1e-05"},
      {"variant": "A36C G60A", "self-cleavage kobs at 10000 uM GlcN6P": "< 1e-05"},
      {"variant": "U47A U65G G66U", "self-cleavage kobs at 10000 uM GlcN6P": "0.00262 ± 0.00053"},
      {"variant": "C16A G29C G37C A42U", "self-cleavage kobs at 10000 uM GlcN6P": "< 1e-05"},
      {"variant": "C34U G38U A48U", "self-cleavage kobs at 10000 uM GlcN6P": "< 1e-05"},
      {"variant": "G38A G40U U49A C68U C70U", "self-cleavage kobs at 10000 uM GlcN6P": "< 1e-05"},
      {"variant": "A39G U65G C70U", "self-cleavage kobs at 10000 uM GlcN6P": "0.0203 ± 0.0059"},
      {"variant": "C34A G38A A53U", "self-cleavage kobs at 10000 uM GlcN6P": "< 1e-05"},
      {"variant": "C11G G32C G38C G66A", "self-cleavage kobs at 10000 uM GlcN6P": "< 1e-05"},
      {"variant": "C11U A33U U57C", "self-cleavage kobs at 10000 uM GlcN6P": "< 1e-05"},
      {"variant": "A12C G62U C71U", "self-cleavage kobs at 10000 uM GlcN6P": "< 1e-05"},
      {"variant": "G37A U65C C70U", "self-cleavage kobs at 10000 uM GlcN6P": "< 1e-05"},
      {"variant": "G29C G32A G38C", "self-cleavage kobs at 10000 uM GlcN6P": "< 1e-05"},
      {"variant": "G43A C50A A64U", "self-cleavage kobs at 10000 uM GlcN6P": "< 1e-05"},
      {"variant": "U46G C61G C71G", "self-cleavage kobs at 10000 uM GlcN6P": "4.27e-05 ± 1.8e-05"},
      {"variant": "C11U G13C G35C", "self-cleavage kobs at 10000 uM GlcN6P": "< 1e-05"},
      {"variant": "A36G A39U A53G", "self-cleavage kobs at 10000 uM GlcN6P": "< 1e-05"},
      {"variant": "U45G U54A C58A G60U", "self-cleavage kobs at 10000 uM GlcN6P": "< 1e-05"},
      {"variant": "G29U A33U G62U", "self-cleavage kobs at 10000 uM GlcN6P": "< 1e-05"},
      {"variant": "C67U C70U C71U", "self-cleavage kobs at 10000 uM GlcN6P": "< 1e-05"},
      {"variant": "U30A U49G C68A", "self-cleavage kobs at 10000 uM GlcN6P": "< 1e-05"},
      {"variant": "G13A G29A G63U", "self-cleavage kobs at 10000 uM GlcN6P": "< 1e-05"},
      {"variant": "G35C A48G G59U G60A", "self-cleavage kobs at 10000 uM GlcN6P": "< 1e-05"},
      {"variant": "G13A A36G A39G", "self-cleavage kobs at 10000 uM GlcN6P": "< 1e-05"},
      {"variant": "G35U U46C U47G", "self-cleavage kobs at 10000 uM GlcN6P": "< 1e-05"},
      {"variant": "A15U A36G U54G", "self-cleavage kobs at 10000 uM GlcN6P": "< 1e-05"},
      {"variant": "A14U A42U U57C", "self-cleavage kobs at 10000 uM GlcN6P": "< 1e-05"},
      {"variant": "G59C G60C", "self-cleavage kobs at 10000 uM GlcN6P": "< 1e-05"},
      {"variant": "C61G U69A", "self-cleavage kobs at 10000 uM GlcN6P": "< 1e-05"},
      {"variant": "A42C G63A C67A", "self-cleavage kobs at 10000 uM GlcN6P": "< 1e-05"},
      {"variant": "U30G A53U U69A", "self-cleavage kobs at 10000 uM GlcN6P": "4.29e-05 ± 1.8e-05"},
      {"variant": "A15U C34A G41A", "self-cleavage kobs at 10000 uM GlcN6P": "< 1e-05"},
      {"variant": "G40U A53C G62C", "self-cleavage kobs at 10000 uM GlcN6P": "< 1e-05"},
      {"variant": "A42U U56C", "self-cleavage kobs at 10000 uM GlcN6P": "5.38e-05 ± 1.2e-05"},
      {"variant": "G13U G32C C34U G60A G66A", "self-cleavage kobs at 10000 uM GlcN6P": "< 1e-05"},
      {"variant": "U46G C50G C67G", "self-cleavage kobs at 10000 uM GlcN6P": "< 1e-05"},
      {"variant": "G29C G40C G41A G51A", "self-cleavage kobs at 10000 uM GlcN6P": "< 1e-05"},
      {"variant": "A14C A53U C61A", "self-cleavage kobs at 10000 uM GlcN6P": "< 1e-05"},
      {"variant": "A15U C58G U65A", "self-cleavage kobs at 10000 uM GlcN6P": "< 1e-05"},
      {"variant": "A15G A33C A52U", "self-cleavage kobs at 10000 uM GlcN6P": "< 1e-05"},
      {"variant": "G41C A53C C58A C61U", "self-cleavage kobs at 10000 uM GlcN6P": "< 1e-05"},
      {"variant": "G13C G29C G43C C67A", "self-cleavage kobs at 10000 uM GlcN6P": "< 1e-05"},
      {"variant": "G62U U69C", "self-cleavage kobs at 10000 uM GlcN6P": "< 1e-05"},
      {"variant": "A15C C16A A36C G41C G62U", "self-cleavage kobs at 10000 uM GlcN6P": "< 1e-05"},
      {"variant": "C11A G44U C67U", "self-cleavage kobs at 10000 uM GlcN6P": "4.33e-05 ± 2.1e-05"},
      {"variant": "U49A C70A", "self-cleavage kobs at 10000 uM GlcN6P": "< 1e-05"},
      {"variant": "U30C A53U G60U", "self-cleavage kobs at 10000 uM GlcN6P": "< 1e-05"},
      {"variant": "U30A A42G U46A", "self-cleavage kobs at 10000 uM GlcN6P": "0.000409 ± 9.1e-05"},
      {"variant": "G41C A53G C61G", "self-cleavage kobs at 10000 uM GlcN6P": "< 1e-05"},
      {"variant": "A39U U55C U65C", "self-cleavage kobs at 10000 uM GlcN6P": "0.00435 ± 0.00052"},
      {"variant": "C16A G32U U46C G63A C67U C68U", "self-cleavage kobs at 10000 uM GlcN6P": "< 1e-05"},
      {"variant": "C16G A33U G44U A53U", "self-cleavage kobs at 10000 uM GlcN6P": "< 1e-05"},
      {"variant": "C11U G63C", "self-cleavage kobs at 10000 uM GlcN6P": "< 1e-05"},
      {"variant": "U30A G41A U46A C70G", "self-cleavage kobs at 10000 uM GlcN6P": "< 1e-05"},
      {"variant": "A15G A52G C67U C71G", "self-cleavage kobs at 10000 uM GlcN6P": "4.89e-05 ± 1.3e-05"},
      {"variant": "G38C A52U G59A", "self-cleavage kobs at 10000 uM GlcN6P": "< 1e-05"},
      {"variant": "A36C G51C C68U", "self-cleavage kobs at 10000 uM GlcN6P": "< 1e-05"},
      {"variant": "G13A U65G C70G", "self-cleavage kobs at 10000 uM GlcN6P": "< 1e-05"},
      {"variant": "A12U G37C U45A A48U C68U", "self-cleavage kobs at 10000 uM GlcN6P": "< 1e-05"},
      {"variant": "C16G C50A U56C U69G", "self-cleavage kobs at 10000 uM GlcN6P": "< 1e-05"},
      {"variant": "A12C U49G C68A", "self-cleavage kobs at 10000 uM GlcN6P": "< 1e-05"},
      {"variant": "A33U G38U U46G", "self-cleavage kobs at 10000 uM GlcN6P": "< 1e-05"},
      {"variant": "G32U U46A A52G C61U C67G", "self-cleavage kobs at 10000 uM GlcN6P": "< 1e-05"},
      {"variant": "G38C G44U U55A U65C", "self-cleavage kobs at 10000 uM GlcN6P": "< 1e-05"},
      {"variant": "U31A C34U G40C", "self-cleavage kobs at 10000 uM GlcN6P": "< 1e-05"},
      {"variant": "U31G C50A G59A", "self-cleavage kobs at 10000 uM GlcN6P": "< 1e-05"},
      {"variant": "U30C U46C G59U", "self-cleavage kobs at 10000 uM GlcN6P": "< 1e-05"},
      {"variant": "A36C U56C", "self-cleavage kobs at 10000 uM GlcN6P": "< 1e-05"},
      {"variant": "A36G A64C U65G", "self-cleavage kobs at 10000 uM GlcN6P": "< 1e-05"},
      {"variant": "A48C C68A C71U", "self-cleavage kobs at 10000 uM GlcN6P": "< 1e-05"},
      {"variant": "G26U U69A", "self-cleavage kobs at 10000 uM GlcN6P": "6.81e-05 ± 2.1e-05"},
      {"variant": "G43U A52U C58U A64G", "self-cleavage kobs at 10000 uM GlcN6P": "< 1e-05"},
      {"variant": "U31C G44A C71G", "self-cleavage kobs at 10000 uM GlcN6P": "< 1e-05"},
      {"variant": "A39U U55C A64G", "self-cleavage kobs at 10000 uM GlcN6P": "0.0229 ± 0.0073"},
      {"variant": "G37C C61G C67U C71U", "self-cleavage kobs at 10000 uM GlcN6P": "< 1e-05"},
      {"variant": "A12C U31G G63U", "self-cleavage kobs at 10000 uM GlcN6P": "< 1e-05"},
      {"variant": "C61G G62A U69C", "self-cleavage kobs at 10000 uM GlcN6P": "< 1e-05"},
      {"variant": "A36C G37C", "self-cleavage kobs at 10000 uM GlcN6P": "< 1e-05"},
      {"variant": "G37C G44C", "self-cleavage kobs at 10000 uM GlcN6P": "< 1e-05"},
      {"variant": "C11U A36U", "self-cleavage kobs at 10000 uM GlcN6P": "< 1e-05"},
      {"variant": "A52U C58G U65G", "self-cleavage kobs at 10000 uM GlcN6P": "< 1e-05"},
      {"variant": "A48C G59U C71G", "self-cleavage kobs at 10000 uM GlcN6P": "< 1e-05"}
    ]}
  ]
}
